# Out of some 350,000 compounds screened, about 9,900 (2.8%) were called active. This list was built around the results that the source calls inconclusive (neither active nor inactive); the mix of calls is not that of the screen. Calls come from the whole dose curve; as a rule, active = well fitted activation curve with a large enough effect; inconclusive = small, poorly fitted or top-dose-only effect; inactive = no such curve, though single readings can be large or run the other way. Potencies of inconclusive entries are left out as doubtful fits.
# Assay: A quantitative high throughput screen for small molecules that induce DNA re-replication in MCF 10a normal breast cells. Note: nearly all actives have a fitted effect of over 50% in size.
# Details: MCF 10A DNA re-replication, Hoechst nuclear intensity, 48 h; series mostly up to 46.1 µM
# Potency is the fitted concentration of half-maximal effect; tags give direction and shape of the fitted curve.
row,Compound,Potency
1,CCSc1nnc(NC(=O)C2CC2c2ccccc2)s1 (stereo unspecified),"inconclusive [activator, single point]"
2,O=C(C=Cc1ccc(Cl)s1)c1ccc(Cl)s1,"inconclusive [activator, single point]"
3,CCOC(=O)Cc1csc(NC(=O)c2cccc(OC)c2)n1,inactive
4,O=C1/C(=C\c2cccc(O)c2)SC(=S)N1Cc1ccccc1,"inconclusive [activator, single point]"
5,O=C(Nc1ccc(C(F)(F)F)cc1)c1ccccc1,inactive
6,Cc1ccc(NC(=O)CSc2nnnn2-c2ccc3c(c2)OCO3)cc1C,active: 16.4 µM
7,COC(=O)c1ccc(Cn2cnc3c(cnn3-c3ccc(Cl)cc3)c2=O)o1,"inconclusive [activator, partial curve, poor fit]"
8,COc1ccc(/C=C2\Sc3ccc(C(=O)NCc4cccnc4)cc3N(C)C2=O)cc1OC,"inconclusive [activator, partial curve, poor fit]"
9,COc1ccc(S(=O)(=O)N2CCCCCC2)cc1C(=O)N(C)CC(=O)Nc1ccc(F)cc1,inactive
10,O=C(/C=C/c1ccccc1)N1CCC(c2ccccc2)C1 (stereo unspecified),inactive
11,O=S(=O)(c1ccc(NC(=S)N2CCN(c3ccccc3F)CC2)cc1)N1CCOCC1,inactive
12,COC(=O)c1cc2cc(NS(=O)(=O)c3ccc(C)cc3)ccc2s1,"inconclusive [activator, single point]"
13,COc1ccc(C(=O)NC(=S)NNC(=O)COc2ccccc2)cc1,"inconclusive [activator, single point]"
14,S=C(Cc1ccccc1)N1CCOCC1,"inconclusive [activator, partial curve, poor fit]"
15,COc1cccc(OC)c1C(=O)Nc1sc2c(c1C(N)=O)CCCC2,inactive
16,FCCCOc1ccc(-c2ccnc(-c3ccccc3)n2)cc1,"inconclusive [activator, single point]"
17,O=C(N/N=C/c1ccco1)c1cc(C2CC2)nc2ccccc12,"inconclusive [activator, single point]"
18,Cc1ccc2[nH]c3c(=O)n(N)c(C)nc3c2c1,inactive
19,Cn1cccc1/C=N/NC(=O)c1ccccn1,inactive
20,Cc1ccc(C)c(OCC(=O)Nc2cccc(S(=O)(=O)NC3=NCCCCC3)c2)c1,inactive
21,Cc1ccc(C(=O)NC(C#N)=C(Cl)Cl)cc1,active: 9.2 µM
22,COc1ccc(CN(C(=O)c2snc(C(N)=O)c2N)C(C(=O)NC2CCCC2)c2cc(OC)ccc2OC)cc1 (stereo unspecified),inactive
23,O=C(Nc1ccc(-c2noc(COc3ccccc3Cl)n2)cc1)c1ccco1,inactive
24,Cc1ccc(NC(=O)c2ccc3nccnc3c2)c(C)c1,inactive

row,Compound,Potency
1,CC(/C=N/Nc1ncc(C)c(=O)[nH]1)=C\c1ccccc1,"inconclusive [activator, partial curve, poor fit]"
2,CCc1nnc(NC(=O)c2nc(S(=O)(=O)Cc3ccc(C)cc3)ncc2Cl)s1,active: 1.3 µM
3,C=CC[N+](C)(C)CCCNC(=O)/C=N/O,"inconclusive [activator, partial curve, poor fit]"
4,Nc1ccccc1SSc1ccccc1N,inactive
5,CC(C)CNS(=O)(=O)c1ccc(CCC(=O)N2CCN(Cc3ccc4c(c3)OCO4)CC2)cc1,"inconclusive [activator, partial curve, poor fit]"
6,CCn1c2ccccc2c2cc(NC(=O)c3cccc([N+](=O)[O-])c3)ccc21,"inconclusive [activator, full curve, poor fit]"
7,COc1cc(C2C(C#N)=C(N)N(Nc3ccccc3)C3=C2C(=O)CC(C)(C)C3)ccc1OCc1ccccc1 (stereo unspecified),"inconclusive [activator, full curve]"
8,COc1ccc(Br)cc1C(=O)Nc1ccccc1-c1ccccc1,"inconclusive [activator, single point]"
9,CCOc1ccccc1N1CCN(c2ncnc3scc(-c4ccc(OC)cc4)c23)CC1,"inconclusive [activator, single point]"
10,CCOC(=O)c1sc(NC(=O)CCN2CCOCC2)c(C(=O)OCC)c1C,"inconclusive [activator, single point]"
11,O=C(CCNC(=O)c1ccccc1Cl)Nc1nc2ccc(F)cc2s1,inactive
12,S=c1[nH]nc(C2CCCCC2)n1/N=C/c1ccccc1Cl,"inconclusive [activator, single point]"
13,S=C(NCc1ccncc1)NC1CCCCC1,inactive
14,COCCNC(=S)N=Nc1c(O)[nH]c2c(C)cc(C)cc12,"inconclusive [activator, partial curve, poor fit]"
15,Cc1c(CN2CCc3c([nH]c4ccccc34)C2C2CCCCC2)cnn1C (stereo unspecified),active: 18.4 µM
16,CCOC(=O)C1CCCN(C(=O)c2cc3nc(-c4ccc5c(c4)OCO5)cc(C(F)(F)F)n3n2)C1 (stereo unspecified),"inconclusive [activator, single point]"
17,NC(=O)C1(Nc2ccc(-c3ccccc3)cc2)CCCC1,"inconclusive [activator, partial curve, poor fit]"
18,COc1cc(S(=O)(=O)NCCOC23CC4CC(CC(C4)C2)C3)c(OC)cc1Cl,"inconclusive [activator, single point]"
19,CN1CCN(CC#CCn2c3ccccc3c3ccccc32)CC1,"inconclusive [activator, partial curve, poor fit]"
20,COc1ccc(CCn2cnc(=O)c(C#N)c2C)cc1OC,"inconclusive [activator, partial curve, poor fit]"
21,CC(C)(C)c1cc(N2CCOCC2)n2ncc(-c3ccc(Cl)cc3)c2n1,"inconclusive [activator, full curve, poor fit]"
22,O=C(c1ccoc1)N1CCC2(CC1)Oc1ccc(F)cc1C(=O)C21CC(c2ccccc2)=NO1 (stereo unspecified),"inconclusive [activator, partial curve, poor fit]"
23,Cc1ccc(NC(=O)COC(=O)CCC2CCCC2)c(Br)c1,inactive
24,Cc1ccc(NC(=O)C2C3CCC(O3)C2C(=O)O)cc1Cl (stereo unspecified),"inconclusive [activator, partial curve, poor fit]"

row,Compound,Potency
1,c1ccc(OCc2nc3c4c(ncn3n2)-c2ccccc2CC42CCCC2)cc1,"inconclusive [activator, partial curve, poor fit]"
2,O=C1COc2ccc(C(=O)COC(=O)c3ccccc3F)cc2N1,inactive
3,Fc1ccccc1/C=N/Nc1ncnc2nc[nH]c12,"inconclusive [activator, single point]"
4,CCOC(=O)C1=C(COC(=O)/C=C/c2ccc(OC)c(OC)c2)NC(=O)NC1C (stereo unspecified),inactive
5,Clc1cccc(/C=N/Nc2ncnc3ccccc23)c1,"inconclusive [activator, partial curve, poor fit]"
6,N#Cc1c(-c2ccccc2)ccn(Cc2ccccc2Cl)c1=O,"inconclusive [activator, partial curve, poor fit]"
7,Cc1ccccc1CC1(CO)CCCN(Cc2ccccc2Cl)C1 (stereo unspecified),"inconclusive [activator, partial curve, poor fit]"
8,CCOC(=O)C1CCCN(CC(=O)N(C)c2c(N)n(Cc3ccccc3)c(=O)[nH]c2=O)C1 (stereo unspecified),inactive
9,CCOC(=O)Nc1ccc2c(c1)N(C(=O)C(C)N1CCCC1)c1ccccc1CC2 (stereo unspecified),"inconclusive [activator, full curve, poor fit]"
10,Cc1ccc(-n2c(C3CC3c3ccc(Cl)cc3)n[nH]c2=S)cc1 (stereo unspecified),"inconclusive [activator, partial curve, poor fit]"
11,Cc1cccc(C)c1NC(=O)COC(=O)c1c(C)nn(-c2ccccc2)c1C,inactive
12,Cc1ccc2nc3n(c2c1)CCCN3,"inconclusive [activator, partial curve, poor fit]"
13,COc1ccc(Cl)cc1NC(=O)CN(C)CC(=O)Nc1cccc(S(=O)(=O)N2CCCC2)c1,"inconclusive [activator, partial curve, poor fit]"
14,c1ccc2[nH]c(SCCN3CCOCC3)nc2c1,"inconclusive [activator, partial curve]"
15,COc1ccc(-n2c(=O)c(CCC(=O)N(C)Cc3ccccc3C)nc3ccccc32)cc1,inactive
16,Clc1ccc(-c2nc3cnccn3c2Nc2ccc3c(c2)OCO3)cc1,"inconclusive [activator, single point]"
17,CC(=O)c1c(C)[nH]c(C(=O)CN(C)CC(=O)Nc2ccccc2Cl)c1C,"inconclusive [activator, single point]"
18,Cc1ccc(-c2cnc(C3CC3)o2)cc1S(=O)(=O)Nc1ccccc1,"inconclusive [activator, partial curve]"
19,O=C(Cc1ccccc1)Nc1ccc(NC(=O)c2ccccc2)c(Cl)c1,"inconclusive [activator, single point]"
20,S=C(Nc1ccccc1Oc1ccccc1)Nc1cccc(Cl)c1Cl,"inconclusive [activator, single point]"
21,Cc1ccccc1CS(=O)(=O)Cc1ccc(C(=O)NCCCN2CCOCC2)o1,inactive
22,CC(c1ccccc1)N1CCn2c(nc3cc(NC(=O)NC4CCCCC4)ccc32)C1 (stereo unspecified),inactive
23,CC(C)(CNC(=O)c1ccc(NS(=O)(=O)c2ccc(Br)cc2)cc1)N1CCOCC1,"inconclusive [activator, single point]"
